# Results taken from PMC4336329 (PLoS ONE, 2015).
# The campaign covered roughly 310,000 compounds. About 2,200 (0.71%) showed an effect of 50% or more. The effect is printed as a negative number. The list shows a part of the results.
# Biological target: human ether-à-go-go-related gene (hERG) potassium channel (human, UniProt Q12809)
# Test: primary screen, population patch clamp on CHO cells stably expressing hERG
# Sequence of human ether-à-go-go-related gene (hERG) potassium channel (Q12809 whole entry, looked up): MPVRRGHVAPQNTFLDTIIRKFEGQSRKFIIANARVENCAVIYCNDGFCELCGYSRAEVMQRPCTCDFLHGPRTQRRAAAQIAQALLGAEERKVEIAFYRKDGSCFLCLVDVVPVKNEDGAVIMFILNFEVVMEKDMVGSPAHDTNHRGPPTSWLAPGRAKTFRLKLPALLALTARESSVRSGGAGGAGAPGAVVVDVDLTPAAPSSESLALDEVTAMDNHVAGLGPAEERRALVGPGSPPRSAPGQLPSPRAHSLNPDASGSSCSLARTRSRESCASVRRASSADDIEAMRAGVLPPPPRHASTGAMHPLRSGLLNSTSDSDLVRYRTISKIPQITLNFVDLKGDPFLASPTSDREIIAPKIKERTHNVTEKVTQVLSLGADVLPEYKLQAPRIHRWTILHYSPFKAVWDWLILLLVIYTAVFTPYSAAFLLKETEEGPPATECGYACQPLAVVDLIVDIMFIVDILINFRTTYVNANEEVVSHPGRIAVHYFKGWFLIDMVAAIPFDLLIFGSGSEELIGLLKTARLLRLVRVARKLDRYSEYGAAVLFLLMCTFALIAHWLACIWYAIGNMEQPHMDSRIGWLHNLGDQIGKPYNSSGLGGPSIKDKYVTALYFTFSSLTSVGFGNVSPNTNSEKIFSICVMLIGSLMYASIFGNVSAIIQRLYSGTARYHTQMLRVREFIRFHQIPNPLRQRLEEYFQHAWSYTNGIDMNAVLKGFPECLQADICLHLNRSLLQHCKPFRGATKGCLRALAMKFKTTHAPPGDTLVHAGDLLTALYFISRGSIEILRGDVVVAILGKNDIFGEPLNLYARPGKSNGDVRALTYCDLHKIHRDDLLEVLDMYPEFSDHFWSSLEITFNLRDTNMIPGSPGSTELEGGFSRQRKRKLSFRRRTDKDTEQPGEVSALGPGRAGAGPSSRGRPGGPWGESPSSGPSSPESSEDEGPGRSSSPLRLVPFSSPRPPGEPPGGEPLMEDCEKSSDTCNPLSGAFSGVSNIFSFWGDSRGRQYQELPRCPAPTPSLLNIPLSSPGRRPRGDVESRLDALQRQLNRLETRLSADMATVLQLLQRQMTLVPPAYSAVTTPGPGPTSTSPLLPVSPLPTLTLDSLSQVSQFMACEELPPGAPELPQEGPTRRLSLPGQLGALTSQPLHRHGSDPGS
row,Compound,"hERG current change (%, negative = inhibition) at 1uM [%]"
1,O=C(Nc1nnc(C2CC2)s1)c1cc(S(=O)(=O)N2CCN(c3ccccc3)CC2)ccc1Cl,-4.06
2,COc1ccc(C(=O)Nc2nc3cc(OC)c(OC)cc3c(=O)[nH]2)cc1,8.58
3,FC(F)(F)c1cccc(NC(=S)NCc2ccccn2)c1,8.26
4,CCOC(=O)c1cc(-c2cccnc2)nn1-c1ccccn1,7.68
5,CC1CCCN1CC#CC(O)(c1ccccc1)c1ccccc1.Cl (centres unmarked),-9.44
6,O=C(NCC(c1cccnc1)N1CCOCC1)Nc1ccccc1 (centres unmarked),12.4
7,COC(=O)C1=CO[C@@H](OC2OC(CO)C(O)C(O)C2O)[C@@H]2[C@@H](C)[C@@H](O)C[C@H]12 (some centres unmarked),7.5
8,COc1ccc(Cl)cc1NC(=O)CN1CCCCCC1,5.35
9,CN(C)CCCNc1ncnc2scc(-c3ccccc3)c12.O=C(O)C(=O)O,-2.63
10,COc1ccccc1NC(=O)N1CCN(c2ccc3nnc(-c4ccc(F)cc4)n3n2)CC1,13.5
11,C=CCNCc1ccc(C(=O)NCCCCCCC)cc1[N+](=O)[O-],4.53
12,CCOC(=O)c1ccc(NC(=O)COc2ccc(S(=O)(=O)N3CCCC3)cc2)cc1,6.91
13,COc1ccc(CC(=O)NNC(=O)c2cnccn2)cc1,11.1
14,O=C(CSc1ccc(Cl)cc1)Nc1cccc(-c2nnc(-c3ccco3)o2)c1,11
15,COC(=O)C1=C(C(=O)OC)C2(OC1c1cccc(F)c1)C(=O)c1ccccc1C2=O (centres unmarked),11.6
16,O=C(Nc1ccc(NC(=O)c2cccnc2)cc1)c1ccccc1,9.97
17,CCOC(=O)C(=CNc1ccc(C#N)cc1)C(=O)OCC,-9.75
18,CCCCN1CCNC[C@@H]1Cc1ccccc1,7.92
19,O=c1cc(-c2ccc(O)cc2)oc2cc(O)c(C3OC(CO)C(O)C(O)C3O)c(O)c12 (centres unmarked),11.2
20,S=C(NCc1ccccc1)Nc1ccc(Cl)cc1,-4.75
21,CCOc1ccc(N(CC(=O)Nc2ccc(OC)cc2)S(C)(=O)=O)cc1,7.86
22,NS(=O)(=O)c1ccc(NC(=S)NC(=O)c2cccnc2)cc1,7.17

row,Compound,"hERG current change (%, negative = inhibition) at 1uM [%]"
1,COc1ccccc1NC(=O)Nc1ccc(NC(=O)c2ccccc2O)cc1,-2.66
2,N/C(=N\OC(=O)c1cnn(-c2ccccc2)c1C(F)(F)F)c1ccc(C(F)(F)F)cc1,14.4
3,CCn1c(SCC(=O)N(C)CC(=O)Nc2cccc(OC)c2)nnc1-c1ccco1,15.3
4,Cc1ccc(CN(Cc2cc3cc4c(cc3[nH]c2=O)OCCO4)Cc2nnnn2Cc2ccco2)cc1,1.81
5,Cc1cccc(C(=O)Nc2ccc(NC(=O)Cc3ccc(Cl)cc3)cc2)c1,13.1
6,CCOc1ccc(NC2c3ccccc3C(=O)N2Cc2ccco2)cc1 (centres unmarked),5.84
7,O=c1c(-c2ccccc2Cl)coc2c(CN3CCCCC3)c(O)ccc12,14.3
8,C/C(CC(=O)NCc1ccco1)=N\NC(=O)Cc1ccc(Cl)cc1,12.6
9,Cc1cc(Cl)cc2c(N=Nc3ccccc3C(=O)O)c(O)[nH]c12,17.4
10,CCNc1nc(N)nc(Oc2ccc(OCc3ccccc3)nn2)n1,10.7
11,Cc1sc2ncnc(OCC(=O)Nc3ccc4c(c3)OCCO4)c2c1C,11
12,COc1cccc(NC(=O)CN2CC(c3ccccc3)CC2=O)c1 (centres unmarked),5.07
13,COc1cccc(NC(=O)CN2CCN(c3nc(-c4cccc(OC)c4)cs3)CC2)c1,10.4
14,Cc1ccc(C(=O)NC(C(=O)Nc2cccc(S(N)(=O)=O)c2)C(C)C)cc1 (centres unmarked),7.73
15,NC(N)=NCCCC(NC(=O)c1ccccc1)C(=O)Nc1ccc2ccccc2c1 (centres unmarked),18.6
16,COc1ccc(C(=O)N2CCN(c3c(C)cccc3C)CC2)cc1OC,-15.3
17,CCCOc1ccc(CN2CCOCC2)cc1OC.Cl,8.36
18,CC(C)(C)OC(=O)N1CCC(CNC(=O)c2ccccc2)CC1,11.9
19,Nc1c(C(=O)NC2CCCC2)c2nc3ccccc3nc2n1N,20
20,COc1cc2c(cc1OC)CN(C(=O)CCNS(=O)(=O)c1ccccc1F)CC2,9.48
21,Cc1ccc(C2(c3noc(CN4CCC(c5ccncc5)CC4)n3)CCCC2)cc1,8.2
22,COCCCn1c(SCC(=O)NC2CCCCC2)nc2ccccc2c1=O,9.04

row,Compound,"hERG current change (%, negative = inhibition) at 1uM [%]"
1,CC(Sc1nnc(-c2ccccc2F)n1C1CC1)C(=O)NC(N)=O (centres unmarked),14.6
2,CN(c1ccccc1)c1nc(N)c(C#N)c(CC#N)c1C#N,10.8
3,CCOC(=O)N1CCN(C(=O)/C=C/c2ccc(C(C)(C)C)cc2)CC1,9.05
4,CCCCCCc1nnc(NC(=O)OCC)s1,0.51
5,Cc1cc(NC(=O)CN2CCOCC2)n(-c2ccccc2)n1,11.6
6,CC(C(=O)Nc1ccccc1C(=O)N1CCOCC1)N(c1ccccc1)S(C)(=O)=O (centres unmarked),11.7
7,COc1ccc(CNC(=O)CSc2nc(SC)ns2)cc1,9.78
8,COc1ccc(CN2CCCC(CO)(Cc3ccc(F)cc3)C2)cc1C (centres unmarked),2.78
9,O=[N+]([O-])c1cccnc1SCc1ccccc1,11.7
10,Cc1ccccc1CSc1nc2ccccc2c(=O)n1C,23.6
11,CC(=O)Nc1ccc(-c2nnc(SCC(=O)c3ccc4c(c3)Cc3ccccc3-4)n2C)cc1,9.02
12,O=C(NC(C(=O)N/N=C/c1c2ccccc2cc2ccccc12)c1n[nH]c(=O)c2ccccc12)c1ccccc1 (centres unmarked),15.3
13,N#Cc1ccc(NCCc2ccccn2)c([N+](=O)[O-])c1,-33.6
14,CCC1Sc2ccc(S(=O)(=O)CCC(=O)Nc3c(Cl)cc(OC)cc3OC)cc2NC1=O (centres unmarked),8.92
15,CC(=O)c1ccc(NC(=O)CSc2nc(C3CC3)nc3ccccc23)cc1,11.6
16,CC(=O)Nc1ccc2c(c1)NC(=O)CC2,9.36
17,COc1ccc(CNC(=O)C2=CC(c3ccc(OC)c(OC)c3)=NS(=O)(=O)N2C)cc1,1.34
18,COc1ccc(CNC(=O)CCC(=O)Nc2ccc(Cl)cc2)cc1,10.9
19,CC(=O)N1CCN(c2cc(N3CCc4ccccc4C3)c(F)cc2[N+](=O)[O-])CC1,1.37
20,CC(NC(=O)CN(C)CC(=O)Nc1ccc(Cl)c(C(F)(F)F)c1)c1ccccc1 (centres unmarked),11.3
21,COc1cc2c(cc1OC)C(COc1ccc3c(C)cc(=O)oc3c1)N(C(=O)c1ccco1)CC2 (centres unmarked),18.8
22,CN1CCN(S(=O)(=O)c2cccc(C(=O)N(Cc3nnc(-c4ccc(Cl)cc4)o3)C3CC3)c2)CC1,-20

row,Compound,"hERG current change (%, negative = inhibition) at 1uM [%]"
1,CCN(C(=O)COC(=O)c1cc(-c2cccc3ccccc23)nc2ccccc12)C1CCS(=O)(=O)C1 (centres unmarked),-3.46
2,Cc1ccc(S(=O)(=O)NCCC(=O)NCc2cccnc2)cc1,10
3,CCOc1ccccc1-n1c(C)nc2cc(C(=O)O)ccc21,3.54
4,O=C(NCc1ccccn1)c1ccc(Cl)c(S(=O)(=O)N2CCCCC2)c1,17.1
5,Cc1cc(C)n(C(=O)c2nn(C)c(C)c2[N+](=O)[O-])n1,16.1
6,O=C(Nc1ccc(Cl)cc1)N1CCC(CO)(Cc2ccccc2)CC1,4.29
7,Cc1onc(-c2ccccc2Cl)c1C(=O)N(Cc1nc(-c2ccccc2)no1)C1CCCCC1,-7.05
8,O=C(Nc1ccc(-c2ccccc2)cc1)c1ccco1,9.06
9,CCOC(=O)NN1C(=O)c2ccccc2NC1c1ccccc1F (centres unmarked),6.19
10,CCC(CC)c1nc(NCCC(=O)O)c2ccccc2n1,11.6
11,COc1ccc2occ(C(=O)c3coc4ccc(O)c(CN(C)C)c34)c2c1.Cl,-29.5
12,Nc1ccc(C(=O)Nc2ccccc2N)cc1,11.8
13,Cn1c(=O)c2c(nc(CN3CCN(C(=O)c4ccco4)CC3)n2CCCO)n(C)c1=O,2.81
14,Cc1nc(SCC(=O)NCc2ccc(F)cc2)c2c(=O)n(C)c(=O)n(C)c2n1,15.3
15,NC(=O)CC[C@@H]1NC(=O)[C@H](CO)NC(=O)c2cc([N+](=O)[O-])cc(I)c2OCC[C@@H](C(N)=O)NC1=O,14.9
16,CC[C@@]12C(=O)N(c3cccc(F)c3)C(=O)N1[C@H](c1ccc(Br)cc1)[C@@H]1C(=O)N(C(C)(C)C)C(=O)[C@@H]12,7.06
17,Cc1ccc(-c2cc(-c3ccccc3)nc(Cl)n2)cc1,1.09
18,Cc1ccc(C2CC(=O)N3CN(Cc4ccco4)CSC3=C2C#N)cc1 (centres unmarked),6.5
19,Cc1nn(CC(=O)Nc2ccc(C(=O)N(C)C)cc2)c(=O)c2ccccc12,15.6
20,Cc1ccc(NC(=O)C(C)c2ccc([N+](=O)[O-])cc2)cc1Cl (centres unmarked),-3.06
